From publication PMC12136788
The other results are listed elsewhere or left out.

T1: UNK ZnF1-3 (human, UniProt Q9C0B0 31-174)
T1 sequence: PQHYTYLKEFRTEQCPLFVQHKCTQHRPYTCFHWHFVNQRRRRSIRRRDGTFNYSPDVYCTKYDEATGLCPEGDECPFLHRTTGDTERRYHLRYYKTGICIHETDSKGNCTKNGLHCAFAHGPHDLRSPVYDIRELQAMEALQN

B1: 6249361_6249481_2370_CDS_ENSMUSG00000020456_ENSMUST00000003461|mouse|control|control (ssRNA)
RNA: GGGAGUUCUACAGUCCGACGAUCAUGAGGCAGCAGGAGCACAAUGCCAUUCUGCCGCACCCACUUUGCCUGUCCUGGGCAGAUGAACUGGUCAAUGAUGCACUGUGCCAUGUUGUUGAAGUCACCAAACUGGGCCUCCCAGAGCAACAGAGGAUUGAGCAUCA
B2: chr1:235505951:235505952:+_ENSG00000152904_ENST00000391855|hu_mus|FALSE|FALSE (ssRNA)
RNA: GGGAGUUCUACAGUCCGACGAUCUUUGUAGGCUUUAGCUUCAAGCUCUCUAAGAGUGUGUCGAGUGUAUGCAAAAGAACCUACAUCCUCCAGGUACUGCACACAAUACUUUUUAAUAUCUAUAUUCUCUGUUCUCUGGCGCAGCAACAGAGGAUUGAGCAUCA
B3: chr14:66974463:66974464:+_ENSMUSG00000022044_ENSMUST00000074523|mus_hu|mus_mus_mus_hu_False|78_78 (ssRNA)
RNA: GGGAGUUCUACAGUCCGACGAUCUUGUAGGACGACUUAUUCAGGGGAUCGGCCAGGAAGCAAGAGCAGAACAAGGACACCAGCGGGAGCUCCUUCAUCUUCUCUUUGUAGGCAGCAAGGGUCAUGUUUCUGGGAUCUGGUGGCCAACAGAGGAUUGAGCAUCA
B4: chr7:5336782:5336783:+_ENSG00000164638_ENST00000297195|hu_hu|FALSE|FALSE (ssRNA)
RNA: GGGAGUUCUACAGUCCGACGAUCUGGGUGCUCGAAGUGGACGUCCCCGGCGACAACGUCGUGGUGCACGCGGUAGCCAUAGCCCCUGCCCAGGCCUGGCCUGCCCCGGUGGCUGUCACGCGGCCGUGUGGUAUAGAAGAGCACCAACAGAGGAUUGAGCAUCA
B5: 4274702_4274822_3862_CDS_ENSMUSG00000020647_ENSMUST00000085814|mouse|control|control (ssRNA)
RNA: GGGAGUUCUACAGUCCGACGAUCCCCCUGUAGCCGCUGCUGCAGCUGCAGCCGAAGCUGGUUGGGUGCAGCUGGAGGUCUAUUGAGAGUCUGCCGGGGCUGCAUGCCCAUGUUGGGUGAAAAGGUUCCUCGAGGAGGUGUUACCAACAGAGGAUUGAGCAUCA
B6: 176684058_176687015_4977_CDS_ENSG00000165671_ENST00000439151|human|control|control (ssRNA)
RNA: GGGAGUUCUACAGUCCGACGAUCACAGCGGACACAGCGCAUCAACCGACCUUUAGAUGCAGAAACAUUGGCUGGAUUAGCAGCAUGACAGGUUAUACAGAUGUGGAGGGAGCACCGGAAGCCCUUGUUCUGCAUAACAGUGGGCAACAGAGGAUUGAGCAUCA
B7: chr9:79603372:79603373:-_ENSMUSG00000032330_ENSMUST00000034881|mus_hu|FALSE|FALSE (ssRNA)
RNA: GGGAGUUCUACAGUCCGACGAUCAAGCGAUUGCUGGGAUGACUGAAGUCACUCCUGCUUCUUGGGAAAUGAAGCCACAGCCAGCUCAUAUAUGGCAUAUGCUGUUCCUUCAAACAUUCCAAAGGCCUUACCACCAACUGUAAGCAACAGAGGAUUGAGCAUCA
B8: 6302852_6303219_2100_CDS_ENSMUSG00000041164_ENSMUST00000102914|mouse|control|control (ssRNA)
RNA: GGGAGUUCUACAGUCCGACGAUCUGGCCCAUCCGGCUCCUCCUUGAUGUGUAGGUCAGGCUUCACAGGCACUGGCUUCCAGCUGCACGUGGGGUCAAUGGUGAUCUCCUCGUAGUCUGAGUUCUGAAUAUAAAUCAGGAUGCCCAACAGAGGAUUGAGCAUCA
B9: chr2:48026839:48026840:+_ENSG00000116062_ENST00000540021|hu_hu|hu_hu_hu_mus_False|18_68 (ssRNA)
RNA: GGGAGUUCUACAGUCCGACGAUCAUAGUGAGCCACUAGCGUCCUAAAUCUGGAACAGUGGCGGUCAUCUGAAAACUGGCCGAUGAAAAACUUGCCCAGUGAAGUGUCCACAAAGCACACACCAUAUACACGAGUGUGACCAGACAACAGAGGAUUGAGCAUCA
B10: chr6:83878822:83878823:+_ENSMUSG00000030016_ENSMUST00000032088|mus_mus|FALSE|FALSE (ssRNA)
RNA: GGGAGUUCUACAGUCCGACGAUCUCCCUCGAGGAUUAAACCUGGGUCUCGACAUGGCUACUUUCAAGAAUGCCUGAUUUAAAAAAGUAUAAGGUGGUGUUGAACCAUGGGAGGCAACGGCAUUCAGCUGCUGAAGCGCCAACUCAACAGAGGAUUGAGCAUCA
B11: chr15:37385894:37385895:-_ENSG00000134138_ENST00000382766|hu_hu|motif|central (ssRNA)
RNA: GGGAGUUCUACAGUCCGACGAUCGCUGCCGUCUCUUUCAUCAAUGACGAGGUCGAUGGGCAUUUUCCCCUUCAAACAGCGGAUGUAUCGGUGGCAGAAGUUAUCGCACAGUUCGUGGACCUUUUCUAACUCCAAAAGAUGAAACAACAGAGGAUUGAGCAUCA
B12: chr7:56126341:56126342:+_ENSG00000146731_ENST00000540286|hu_mus|hu_hu_hu_mus_True|88_98 (ssRNA)
RNA: GGGAGUUCUACAGUCCGACGAUCCAUGUUUCUCCUCUUAGCUCUGCGCAGAGCAACGAUCCCUUCUUUCGCAAGGGCAUCUAAGGAAAAGGGGUCAAUCCCCUUUUGAUUAAUAACGACAAAUCCUUUAUCUGAGUCACCACACAACAGAGGAUUGAGCAUCA
B13: chrX:70927055:70927056:+_ENSMUSG00000019558_ENSMUST00000114465|mus_mus|FALSE|FALSE (ssRNA)
RNA: GGGAGUUCUACAGUCCGACGAUCAGAGGCUGUGUUUACUUCUGGUAUUCACCUUCACUAAGGGAUAAGAGAUCUACAGACCUACACAUACACACACAUACACACACACACACACACACACACACAGAGGGGGGUGUGCACUCACAACAGAGGAUUGAGCAUCA
B14: chr2:25301763:25301764:+_ENSMUSG00000026944_ENSMUST00000102919|mus_mus|FALSE|FALSE (ssRNA)
RNA: GGGAGUUCUACAGUCCGACGAUCAAGCUUCCGUUUGUUGCCUCCACUGUAGGUGCCAGCUGGCUUGUCUGCAUACUUUGUCAGUUCCAGCUUCUCUAGGGCCCACUUCACUACCUGUGCCUCAUCCUUCCAGGGGAUGCCACGCAACAGAGGAUUGAGCAUCA

target: T1, UNK ZnF1-3; test: nsRBNS (natural sequence RNA bind-n-seq); RBNS binding buffer (assumed for nsRBNS): 25 mM Tris pH 7.5, 150 mM KCl, 3 mM MgCl2, 0.01% Triton X-100, 500 ug/ml BSA, 20 U/ml SUPERase-In, 4 C; UNK is unkempt and MSI1 is Musashi-1; names of the RNAs are library labels; protein concentration not given here; high values mean tight binding

| Binder | binding signal [enrichment R] |
| --- | --- |
| B1 | 1.08 |
| B2 | 0.78 |
| B3 | 1.99 |
| B4 | 0.724 |
| B5 | 0.748 |
| B6 | 1.53 |
| B7 | 0.419 |
| B8 | 0.887 |
| B9 | 1.12 |
| B10 | 1.42 |
| B11 | 0.901 |
| B12 | 1.1 |
| B13 | 1.07 |
| B14 | 0.608 |
